# Measured values published in PubChem BioAssay (Tox21).
# The shares of active, inactive and inconclusive entries below differ from those in the screen. Potencies of inconclusive entries are left out as doubtful fits. Calls of active or inactive are those of the source. The call rests on the fitted dose curve; in most records, active means well fitted curve in the direction sought with a large enough effect in the repeat runs; inconclusive means weak or mixed curves; inactive means no such curve, though single readings can be large; an effect the other way counts as inactive or inconclusive.
# Assay: A CellTox Green Cytotoxicity Assay to monitor cytotoxicity in HEK293 cells - 8 hour (AID 1224884); further: nearly all actives have a fitted effect of over 35% in size
# Settings: CellTox Green fluorescence; series mostly up to 76.8 µM; cytotoxicity increase: at the top concentration
# Outline: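 Seeding of HEK293 cells together with cytotoxicity dye preceded a 5 h incubation at 37 C/5% CO2. Test compounds in DMSO were then added and fluorescence monitored across 40 h.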
# On the % scale 0 is the no-effect control and ±100 the full control effect; potency means the concentration at half of the fitted maximal effect; tags describe the fitted curve by direction and shape.
SMILES,Potency,cytotoxicity increase
[Cl][Dy]([Cl])[Cl],"inconclusive [activator, single point]",–
OC(Cn1cncn1)(Cn1cncn1)c1ccc(F)cc1F,inactive,–
CCCc1c2oc(C(=O)O)cc(=O)c2cc2c(=O)cc(C(=O)O)n(CC)c12,"inconclusive [activator, single point]",–
COc1ccccc1N=Nc1c(S(=O)(=O)O)cc2cc(S(=O)(=O)O)cc(NC(C)=O)c2c1O,"inconclusive [activator, single point]",–
O=C1C(c2[nH]c3ccc(S(=O)(=O)O)cc3c2O)=Nc2ccc(S(=O)(=O)O)cc21,"inconclusive [activator, single point]",–
CC[C@H]1OC(=O)[C@H](C)[C@@H](O[C@H]2C[C@@](C)(OC)[C@@H](O)[C@H](C)O2)[C@H](C)[C@@H](O[C@@H]2O[C@H](C)C[C@H](N(C)C)[C@H]2O)[C@](C)(O)C[C@@H](C)CN(C)[C@H](C)[C@@H](O)[C@]1(C)O,–,inactive: -4.35% [at 35.3 µM]
O=C(O)COCCN1CCN(C(c2ccccc2)c2ccc(Cl)cc2)CC1 (configuration not stated),inactive,–
Cc1nc2c([nH]1)c(=O)n(C)c(=O)n2Cc1ccco1,–,inactive: 17.2% [at 35.3 µM]
C/C=C/C=C/C=O,–,inactive: -6.52%
CC(C)Cc1ccc(CC(=O)O)cc1,active: 9.52 µM,–
CN(C)Cc1cc(C(C)(C)C)c(O)c(C(C)(C)C)c1,–,inactive: 4.94%
CC(C)(CO)COC(=O)C(C)(C)CO,inactive,–
O=C(/C=C/c1ccc(O)c(O)c1)O[C@@H](C(=O)O)[C@@H](OC(=O)/C=C/c1ccc(O)c(O)c1)C(=O)O,–,inactive: -9.34%
CCCCCCCCC1CO1 (configuration not stated),–,inactive: 13%
O=C(O)c1cc(Cl)cc(Cl)c1O,–,inactive: -1.82%
Cc1ccc(C(C)OC(=O)C2(C)CCC(C(=O)O)C2(C)C)cc1 (configuration not stated),–,inactive: -8.45% [at 35.3 µM]
C1COCCN1,"inconclusive [activator, partial curve]",–

# Assay: qHTS RealTime-Glo MT Cell Viability Assay in HepG2 cells - 16 hour (AID 1224885); further: nearly all actives have a fitted effect of over 50% in size
# Settings: RealTime-Glo luminescence; series mostly up to 76.8 µM; activity change, negative = cytotoxic: at the top concentration
# Outline: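 HepG2 cells (600/well) were dispensed with RealTime-Glo reagents, incubated 5 h at 37 °C, then treated with compounds in DMSO for up to 40 h. Nonlytic NanoLuc luminescence reflecting viable cells was read at each stated time point.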
SMILES,Potency,"activity change, negative = cytotoxic"
COC(=O)C1=C(C)NC(C)=C(C(=O)OCCN2CCN(C(c3ccccc3)c3ccccc3)CC2)C1c1cccc([N+](=O)[O-])c1 (configuration not stated),"inconclusive [cytotoxic, partial curve]",–
O=C1[C@H]2CCCC[C@H]2C(=O)N1CCCCN1CCN(c2nsc3ccccc23)CC1,–,inactive: 0.0311% [at 35.3 µM]
O=C1c2c(O)ccc(Nc3ccc(CCO)cc3)c2C(=O)c2c([N+](=O)[O-])ccc(O)c21,"inconclusive [cytotoxic, partial curve, poor fit]",–
CCOC(=O)C1=C(C)NC(C)=C(C(=O)OC)C1c1cccc([N+](=O)[O-])c1 (configuration not stated),"inconclusive [cytotoxic, partial curve]",–
CCOC(=O)O[C@]1(C(=O)OCCl)CC[C@H]2[C@@H]3CCC4=CC(=O)C=C[C@]4(C)[C@H]3[C@@H](O)C[C@@]21C,"inconclusive [cytotoxic, partial curve, poor fit]",–
CCCCC(=O)O[C@]1(C(=O)CO)[C@@H](C)C[C@H]2[C@@H]3CCC4=CC(=O)C=C[C@]4(C)[C@@]3(F)[C@@H](O)C[C@@]21C,"inconclusive [cytotoxic, partial curve, poor fit]",–
Fc1ccc([C@@H]2CCNC[C@H]2COc2ccc3c(c2)OCO3)cc1,"inconclusive [cytotoxic, partial curve, poor fit]",–
COc1cc2c(cc1OC)C(C(C(=O)N(CCc1ccc(OC)c(OC)c1OC)CCc1ccc(OC)c(OC)c1OC)c1ccccc1)=NCC2 (configuration not stated),"inconclusive [cytotoxic, partial curve]",–
CCCCCCC[N+](CC)(CC)CCCCc1ccc(Cl)cc1,"inconclusive [cytotoxic, partial curve, poor fit]",–
CCOC(=O)C(C)C(C)=O (configuration not stated),–,inactive: 0.636%
Cc1ccc(S(=O)(=O)C(I)I)cc1,active: 11 µM,–
CC[C@@H]([C@H](C)O)n1ncn(-c2ccc(N3CCN(c4ccc(OC[C@@H]5CO[C@@](Cn6cncn6)(c6ccc(F)cc6F)C5)cc4)CC3)cc2)c1=O,"inconclusive [cytotoxic, partial curve]",–
CC(=O)OCCC(C)CC(C)(C)C (configuration not stated),–,inactive: 0.103%
COc1cc(S(=O)(=O)O)c(C)cc1N=Nc1c(O)ccc2cc(S(=O)(=O)O)ccc12,"inconclusive [cytotoxic, partial curve, poor fit]",–
CCC/C=C/C=O,inactive,–
